Measurements from PubChem BioAssay AID1346428 (National Center for Advancing Translational Sciences (NCATS), 2018).
Out of some 48,000 compounds screened, about 1,200 (2.5%) were called active. Inconclusive results (about 2%) are left out.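 The calls were made as follows: active = activation of at least 60% and not above a set upper limit (about 1 call in 100 departs from these limits); inconclusive = activation of 40% to 60%, or above that upper limit; inactive = activation under 40%.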 The list shows a part of the results.

Molecular target: Probable G-protein coupled receptor 32 (Homo sapiens) (UniProt O75388)
Chain of UniProt O75388 (O75388 whole entry, looked up): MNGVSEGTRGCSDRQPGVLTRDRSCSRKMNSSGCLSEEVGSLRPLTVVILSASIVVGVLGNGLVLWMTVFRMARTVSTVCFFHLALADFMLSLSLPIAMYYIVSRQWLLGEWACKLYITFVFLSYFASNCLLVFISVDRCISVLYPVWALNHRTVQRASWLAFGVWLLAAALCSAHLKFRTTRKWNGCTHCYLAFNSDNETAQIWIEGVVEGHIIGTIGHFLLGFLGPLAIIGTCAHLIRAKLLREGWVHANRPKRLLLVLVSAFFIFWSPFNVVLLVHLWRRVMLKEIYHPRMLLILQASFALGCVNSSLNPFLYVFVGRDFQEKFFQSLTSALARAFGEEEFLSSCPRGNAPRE
Experiment: qHTS for Agonists of Human Resolvin D1 Receptor DRV1; also: 0% is about no effect
Settings: CHO-K1 GPR32 beta-arrestin PathHunter luminescence, 90 min; at 76.9 µM; active compounds read high; zero percent set by DMSO-only wells
How it was run: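 Cells are plated overnight, treated with compounds in DMSO for 90 minutes at 37 °C, and developed with PathHunter detection reagent for 1 hour before luminescence is read; signal reflects beta-arrestin binding to GPR32 in engineered CHO-K1 cells.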

Compound	activation
COc1ccc(CCNC(=O)Cn2c(=O)c3cccn3c3ccc(F)cc32)cc1OC	inactive: -16.7%
CCOc1ccc(-c2cnc(NCc3cccc(Cl)c3)n2C)cc1	inactive: -6.79%
N=c1c[n+](N2CCOCC2)[n-]o1	inactive: 11.9%
Cc1ccc(Cn2c(=O)n(Cc3ccc(Cl)cc3)c(=O)c3cccnc32)cc1	inactive: -8.53%
CCOc1ccc(Nc2oc(/C=C/c3ccc(F)cc3)nc2C#N)cc1	inactive: 0.997%
COc1ccc(CNc2nc3c(S(=O)(=O)c4ccccc4)nnn3c3ccc(Cl)cc23)cc1	inactive: -10.5%
COc1ccc(NC(=O)c2oc3c(c2C)-c2nn(Cc4c(F)cccc4Cl)cc2CC3)c(OC)c1	inactive: -18%
Cc1ccc(OCC(=O)Nc2ccc(C(=O)OCc3cc(=O)n4nc(C5CC5)sc4n3)cc2)cc1	inactive: -9.07%
Cc1ccc(NC(=O)C(=O)NCC(c2cccnc2)N2CCN(C)CC2)cc1C (centres undefined)	inactive: -1.32%
Cc1cc(C)c2c(CC(=O)Nc3nnc(C(C)C)s3)coc2c1	active: 65.2%
Fc1ccccc1CNCCCSc1nnnn1-c1ccccc1	inactive: 23.1%
O=C(CSc1nc(=O)[nH]c2c1CCCC2)Nc1cc(C(F)(F)F)ccc1Cl	inactive: -7.23%
COc1ccc(-c2nnc(Nc3ccc(OCC(N)=O)cc3)c3ccccc23)cc1	inactive: 9.64%
O=C1CCSC2(C(=O)N(Cc3ccc(F)cc3)c3ccccc32)N1c1ccccc1 (centres undefined)	inactive: -20.1%
Cc1cc(C)n(-c2nc3ccccc3nc2Nc2cccc(C(F)(F)F)c2)n1	inactive: 7.13%
COc1ccc(OC)c(-c2nc(Nc3ccccc3C)sc2CC(=O)O)c1	inactive: -34%
CCOC(=O)c1ccccc1NC(=O)CSc1ccc(-c2sc(-c3ccccc3)nc2C)nn1	inactive: -11%
COc1cccc(C(=O)Nc2ccccc2C(=O)OCc2cc(=O)n3nc(C)sc3n2)c1	inactive: -7.69%
CC(C)c1ccc(NC(=O)C2CCCN(S(=O)(=O)c3ccc(Br)s3)C2)cc1 (centres undefined)	inactive: -5.94%
CC(C)CCNC(=O)CN1C(=O)COc2ccc(S(=O)(=O)N3CCOCC3)cc21	inactive: -3.67%
COc1ccc(NC(=O)C(=O)NCCc2ccccc2)cc1OC	inactive: 5.01%
COc1ccc(-n2cc(-c3ccccc3)c3c(SC(C)C(C)=O)ncnc32)cc1 (centres undefined)	active: 99.3%
CCOC(=O)c1cccc(NC(=O)c2cc3c(Cl)nc4ccc(C)cc4c3s2)c1	inactive: -6.39%
COc1cc(OC)c(OC)cc1CN1CCc2nc(N3CCN(c4ncccn4)CC3)ncc2C1	inactive: 22.9%
Fc1ccc(-c2cc(-c3nc(-c4cccc(Cl)c4)no3)[nH]n2)cc1	inactive: -0.463%
CCc1ccc(CNC(=O)c2ccc3c(c2)nc2n3CCOC2)cc1	inactive: -5.91%
CC1CCC(NC(=O)c2ccc3c(c2)N(Cc2cccc(F)c2)C(=O)c2ccccc2S3)CC1 (centres undefined)	inactive: -6.38%

Compound	activation
Cc1ccc(C)c(NC(=O)C(C)n2c(=O)cc(C(F)(F)F)c3c(C)nn(C)c32)c1 (centres undefined)	inactive: 2.28%
CCc1nnc(SCc2ccc(F)cc2Cl)c2cc3sccc3n12	inactive: -15.5%
CCN1CCN(C(=O)c2ccc3c(c2)N(Cc2cccc(Cl)c2)C(=O)c2ccccc2S3(=O)=O)CC1	inactive: -17.4%
COc1ccc(-c2noc(C3CC(=O)N(c4ccc(C)c(F)c4)C3)n2)c(OC)c1 (centres undefined)	inactive: 29.5%
COc1ccccc1CNC(=O)CSc1ncc2c(n1)-c1ccccc1N(Cc1ccc(C)cc1)S2(=O)=O	inactive: -0.614%
COc1ccc(OC)c(NC(=O)C2CCN(S(=O)(=O)c3ccc(C)cc3)CC2)c1	inactive: -6.26%
CCOC(=O)c1c(NC(=O)CSc2cn(CCNC(=O)c3ccc(OCC)cc3)c3ccccc23)sc2c1CCCC2	inactive: -24.6%
Cc1cccc(CC(=O)NC2CC(=O)N(c3cccc(F)c3)C2)c1 (centres undefined)	inactive: -3.88%
COc1cccc(N2C(=O)C(CC(=O)Nc3cccc(F)c3)N(C(C)C)C2=O)c1 (centres undefined)	inactive: -16.9%
Cc1cc(N2CCCCC2)nc2ccc(NC(=O)c3ccc(F)cc3)cc12	active: 105%
O=C(COc1ccccc1)Nc1ccc(OCc2cc(=O)n3ccsc3n2)cc1	inactive: 1.91%
COc1ccc(OC)c(C2CC(=O)N(c3cccc(C)c3)C3=C2C(=O)OC3)c1 (centres undefined)	inactive: -8.98%
CCOc1ccc(C(=O)Nc2ccc(S(=O)(=O)N(Cc3ccccc3)c3ccccc3)cc2)cc1	inactive: -3.92%
COCCNC(=O)CSc1nc(-c2ccc(F)cc2)[nH]c1-c1ccc(Cl)cc1	inactive: -22.2%
CC(CNC(=O)Cn1ncc2c3ccccc3n(Cc3cccc(Cl)c3)c2c1=O)c1ccccc1 (centres undefined)	inactive: -12.3%
CN(C(=O)CSc1nc2ncccc2o1)c1ccc(F)cc1	inactive: 2.47%
Cc1cc(F)ccc1Nc1nc2ccccc2n2nnnc12	inactive: -21.4%
COc1ccccc1N1CCN(S(=O)(=O)c2ccc(-c3cc(C(F)(F)F)on3)s2)CC1	inactive: -5.84%
CC(C)CCNC(=O)C(=O)Nc1c2c(nn1-c1ccccc1)CS(=O)(=O)C2	inactive: -16.4%
O=C(CSc1nc2cc3ccccc3cc2[nH]1)Nc1cccc(C(F)(F)F)c1	active: 93.9%
COc1cccc(CNc2ncnc3onc(-c4ccc(F)cc4)c23)c1	inactive: 14.3%
COCc1cc(C)nc2sc3c(c12)NC(c1ccc(NC(C)=O)cc1)N(c1ccc(C)cc1)C3=O (centres undefined)	inactive: -14.8%
CCOC(=O)c1cc(OC(=O)c2cccc(C)c2)n(-c2ccccc2)n1	inactive: 28.3%
CCN(c1ccccc1)c1nnc(NC(=O)Nc2cccc(C(F)(F)F)c2)s1	inactive: 5.43%
O=c1c2ccccc2n(Cc2cccc(Cl)c2)c(=O)n1CCc1ccccc1	inactive: -5.38%
COc1ccc(-c2cc(C(C)=O)c(C)n2CCC(=O)Nc2cc(C)ccc2OC)cc1	inactive: -22.3%
Cc1ccc(C)c(N2CCN(c3ncnc4onc(C)c34)CC2)c1	inactive: -2.02%
